According to the supplement of paper PMC11417369:
± gives the standard deviation of the averaged measurements. Some of the results follow.

Tested on: PfAP2-G AP2 domain (GST-tagged)
Experiment: gcPBM binding intensity (ln(normalized median fluorescence intensity)); higher = stronger DNA binding
Procedure, shortened: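 GST-tagged P. falciparum DNA-binding domains produced in E. coli were incubated for 1 h on an Agilent 4 × 180k array of primer-extended double-stranded 36-bp intergenic genomic probes with negative controls. Binding intensity is the highest Masliner-normalised natural-log median intensity across replicate spots of either probe orientation, with bound protein detected by Alexa488 anti-GST antibody at 488 nm.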

Sequence | gcPBM binding intensity (ln)
ACAAATACAAAAAAAGGTACACACATAATATATTTA [XGTACX_site5515] | 11.4 ± 1
TGTGTAAGATCTTGGATGATGATAAGAATCTACTAG [CACACA_negctrl_site1167] | 9.7 ± 0.33
TTATAAGATTTATGTACACACATATACTCACCTCTA [CACACA_site729] | 11.5 ± 0.93
CCTTAAAATAAGATATGTACGCAAAGGAAAACAAAG [XGTACX_site6057] | 11.5 ± 0.85
TTCTTATAAATATACACACACAAAATATCTACAATG [CACACA_site6487] | 10.11 ± 0.078
AAGTTGAAATAATGTGCACACATTTTTTTTTTTTTT [CACACA_site3368] | 10.5 ± 0.3
CCCTTAATATAAAGCACACATATATATAATATATAT [CACACA_site4439] | 10.1 ± 0.23
ATTTTTATTCAGTTCACACACGCTTTAATATTATAT [CACACA_site3465] | 10.21 ± 0.085
ATATATATTTAACAATGTACTTATTCAGAGAATAAT [XGTACX_site574] | 11.1 ± 0.83
AAAATATTTTTATAATGTACATATAGTTGTATTTGT [XGTACX_site8724] | 11.2 ± 0.53
ATTAATAAAAAATTTTAAAAAATAAATAAAATAAAA [TGCATGCA_negctrl_site113] | 9.61 ± 0.071
ATAATAAATAAAATAACACACATATATAAATATATA [CACACA_site170] | 9.66 ± 0.042
CATATTTGTGGACACACACACATATTTATATATATA [CACACA_site5887] | 11.5 ± 0.95
ATAGTTACACAATGGTGTACAAGTCAATATATTTCT [XGTACX_site4614] | 11.3 ± 0.81
TACAAAAAAATAAAAAAAATTAAATAAATAAATATA [CACACA_negctrl_site45] | 9.35 ± 0.15
ATTATGTGTCCACATGTAAGCTATCTTACTTATATA [CACACA_negctrl_site1227] | 11.2 ± 0.93
ATAATAAAATAACTAGTGCATATTCAAAGGATTCAG | 10.03 ± 0.014
TATCCTTATATTTGCACACACACACTAGAAAATGAA [CACACA_site4714] | 10.3 ± 0.33
AAAAAAAAAAAAAAAAAAAACGAAAAACATCAAAGA [TGCATGCA_negctrl_site78] | 10.8 ± 0.49
ACTAAAAAATATATATGTACATAATAATATATTATT [XGTACX_site1260] | 11.2 ± 0.57
ATTTATACTTATGTATGTACATATATACATATGTAT [XGTACX_site3979] | 11.1 ± 0.61
ATATATATTATATATAGTACTTTTTTGCGCAAATAT [XGTACX_site6849] | 11.1 ± 0.61

Sequence | gcPBM binding intensity (ln)
AACACATGCTTGGTCACACACGTATGCATATTTAAA [CACACA_site5206] | 10.8 ± 0.35
AATATGTTATAAATATGTTATAAATAATAAATAAAT [GTGCAC_negctrl_site135] | 10 ± 0.11
ATATATATATATAATTGTACATATAATATAATATTA [XGTACX_site5216] | 11 ± 0.55
ATTTTTTTTTTTTTATGTACATATAGGTGCAAATCA [XGTACX_site6748] | 11.4 ± 0.83
ACAATGTCATTTGCTAGTACGCATATTGGTTGTAAA [XGTACX_site8924] | 11.4 ± 0.95
TATTTTTTTTTTTTTTTTTTTTTAAAACATATCAAT [CACACA_negctrl_site925] | 9.77 ± 0.18
GAAATTTGTTATTGCACACAAATTTTTCTTTTTTTA [CACACA_site2339] | 9.93 ± 0.16
TAATTATATATATACACACACATACAGACAAATAAA [CACACA_site3412] | 10.4 ± 0.29
TACCATATTTCTTCAAGTACGCATTATGTTAAAAAG [XGTACX_site345] | 11.3 ± 0.84
TACATATATTTTTATACATGCATAACTTAGGACTTT [TGCATGCA_site113] | 9.855 ± 0.064
ATATTTATATATATCATACACACTAATATGTATATT [CACACA_site3409] | 9.865 ± 0.007
TCCTTTTTGAAATGTTGTACTTTTTTTATCTTTCAT [XGTACX_site953] | 11.5 ± 0.67
TTTTTTTAATAGTGTGCACACAATATACAGAAAAAA [CACACA_site8399] | 10.7 ± 0.49
GCAATTTTTTTTAAGAGTACTAATATATTATAGTGG [XGTACX_site7316] | 11.1 ± 0.81
ATATATATATATATATGTACATATGTTTGTTTCCGC [XGTACX_site5167] | 11.1 ± 0.83
CATACATACATACATACATGCATACATACATACATA [TGCATGCA_site218] | 10.5 ± 0.47
CATAATTTAAAAAAGGTGCAAAATGGATAATATATA [GTGCAC_site9657] | 10.4 ± 0.2
TTTTTTTTCATTTTATGTACACATAATTTAATATAT [XGTACX_site5768] | 11.6 ± 0.93
AAAAAGTGACTCCTTACACACTTTACATAATTTAGG [CACACA_site8176] | 10.2 ± 0.19
ATATACATATATATATGTACTTATTTATTTATTTAT [XGTACX_site2532] | 11.3 ± 0.84
AAAAAAATTAAAAATTAAAATTAAAAATAATATATA [GTGCAC_negctrl_site466] | 9.32 ± 0.14
AATGTATAAATCCATACACACATAAATTTTAATAAT [CACACA_site2363] | 9.99 ± 0.16

Sequence | gcPBM binding intensity (ln)
TAATTTCTTTAGGGGGTGCTTTTATAGTTTTTATTA | 11.2 ± 0.64
TTCATAAAATGTGTCTGTACGTAAATGTATTACACT [XGTACX_site3179] | 11.5 ± 0.74
CTGTCTGCAGATATGGTGCATTTGTAAGATCTTACA [GTGCAC_site9870] | 10.11 ± 0.092
TTTATATTTATGATGGGTACACAAAATTTTACCCAT [XGTACX_site1504] | 11.6 ± 0.93
TTTAGTTGTGAGAATTGTACATATTTTCCTTTTACC [XGTACX_site7291] | 11 ± 0.67
TATATACCTATATACACACACATATATTATAGATAT [CACACA_site6266] | 9.895 ± 0.064
AACATTATATATTGCAGTACTCCCATATGTTGATAA [XGTACX_site3119] | 11.2 ± 0.81
ATATATATATATATATGTACACATAAAAAGAAAGAA [XGTACX_site1603] | 11.7 ± 1.1
GATCTATACTATAATACACACATTTGATGAATGTAA [CACACA_site6163] | 9.96 ± 0.099
TATATATATGAACAATGTACGTATAATATTTTTATT [XGTACX_site7561] | 11.3 ± 0.76
ATTAAAAAAAATATATATGTATAAAACAAGCAAAAT [XGTACX_negctrl_site474] | 9.86 ± 0.028
TACACAAACAAACACACACACACACCCCCACAAAAA [CACACA_site2428] | 11 ± 0.53
GACCACTTTAGGATTTGTACACATATTATATATGCA [XGTACX_site6579] | 11.3 ± 0.84
ATATAAGAAAAGCACACACACACAAAAAAAAAAAAA [CACACA_site2827] | 10.1 ± 0.43
TAGCCATTTTTATATTGTACTTATATAATCACATTT [XGTACX_site4407] | 11.3 ± 0.84
ATAAAAAAAAATAACACACAGACATAAGAATAAATA [CACACA_site4162] | 10.01 ± 0.014
TGAAAAAAAAAATACACACACGAGTTGTTATACATA [CACACA_site7486] | 9.79 ± 0.15
GTTTTTAATGTTTTGACATGCAATATTAAAAATAAT [TGCATGCA_site174] | 9.95 ± 0.2
AACAGATATGAATAGAAAAAAAAAAATGGCCCATAT [TGCATGCA_negctrl_site443] | 10.2 ± 0.2
ATTAAAAAAATTGGCACACATAAAAATATATAAAAA [CACACA_site2748] | 10.3 ± 0.39
CCTATTATTTCTAAAACACACAAAAATATAAAAGAA [CACACA_site2708] | 10.2 ± 0.14
ATAATATTATTTAAAAGTACTAACAAAAGAATATTA [XGTACX_site4989] | 11.2 ± 0.67

Sequence | gcPBM binding intensity (ln)
TCTTTTTTTTATTATATCATTGAAATGTTAAAACGA [XGTACX_negctrl_site473] | 9.91 ± 0.12
TATAATGATAATAATAGTACACATTAGAACGGGAGG [XGTACX_site2563] | 11.3 ± 0.66
TATAATAATAAAAACACACACGTTGATTGTATTAGC [CACACA_site5336] | 9.87 ± 0.057
TTTTGATAGAAGTGTTCTAGGAATTCAACTGTAATA [GTGCAC_negctrl_site585] | 10 ± 0.15
CAGCTCTTAAGAATTACACACATATACACATATATA [CACACA_site7524] | 9.91 ± 0.11
ATACATAAATACAAACGTACATACATACATACATAC [XGTACX_site7824] | 11.2 ± 0.67
GCAACACAAAAAATTACACACAAAAAAAATATATTA [CACACA_site916] | 9.94 ± 0.13
TCCTTTATTTTTAAAGTGCATATACATGTACATTAT [GTGCAC_site9445] | 11 ± 0.69
GAAGAAAAAAAATATACACACATACGATCATACATA [CACACA_site5227] | 10.06 ± 0.035
TTTTAATGTACCAGTGTGCACCTTGCGTACATATTA [GTGCAC_site9957] | 11.6 ± 0.97
ATTCAAAAGATGTATACACACATGTGTATAATATAA [CACACA_site7197] | 10.28 ± 0.085
AATAATATATATATAATACACACTATTATAATCACA [CACACA_site1310] | 9.93 ± 0.13
TTGGCATACGGACACACACACACACCCAGACATATA [CACACA_site4492] | 11.2 ± 0.88
AATAATAAAAAATATACACACATATATATATATATA [CACACA_site25] | 10 ± 0.4
AAAAAAAAAAAAAAATGTACATATGGTATGCATATA [XGTACX_site3225] | 11.1 ± 0.64
GCTTATAAAGGCAGAAGTACTGTATTCCTATATATA [XGTACX_site8865] | 11 ± 0.53
AAAATATATACTCCATCACACACCAAAAAGAAAAAA [CACACA_site2542] | 10.2 ± 0.38
TTATACAAATTCATGGGTACAAACAAACATATATCA [XGTACX_site6237] | 11.1 ± 0.72
TATACCTATAAATACACACACATATAAATAAATATA [CACACA_site6153] | 10.05 ± 0.071
ACGTGATAAATAAATACATGCATAGAAAGATGCATA [TGCATGCA_site91] | 9.75 ± 0.071
TATATATATATATATTGTACTAGTGCATATATATAC [XGTACX_site7926] | 10.9 ± 0.45
TTTAAATATTTTAATACACACACGATATGTACAAAA [CACACA_site4455] | 11.2 ± 0.76
